In all, about 360,000 compounds went through this assay and about 16,000 (4.4%) were called active. Inconclusive results, whose numbers are uncertain, are shown with a selection of clear calls. The call rests on the fitted dose curve; in most records, active means well fitted inhibition curve with a large enough effect; inconclusive means small, poorly fitted or top-dose-only effect; inactive means no such curve, though single readings can be large or run the other way. A potency beside an inconclusive call is a rough fit, not a confirmed value.
molecular target: Bromodomain adjacent to zinc finger domain protein 2B (Homo sapiens) (UniProt Q9UIF8); test: qHTS Assay for Inhibitors of BAZ2B; conditions: AlphaScreen BAZ2B-H3K14Ac peptide displacement; activity change, negative = inhibition: at 114 µM (top of the series); further: nearly all actives have a fitted effect of over 60% in size
Procedure, shortened: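 AlphaScreen luminescence quantifies BAZ2B engagement of H3K14Ac peptide; the protein and biotinylated peptide are both at 50 nM final, buffer PBS pH 7.4 with 0.01% Tween-20, all steps at room temperature.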
On the % scale 0 is the no-effect control and ±100 the full control effect; potency means the concentration at half of the fitted maximal effect; tags describe the fitted curve by direction and shape.

Sequence of UniProt Q9UIF8 (Q9UIF8 whole entry, looked up, the tested form may be a part): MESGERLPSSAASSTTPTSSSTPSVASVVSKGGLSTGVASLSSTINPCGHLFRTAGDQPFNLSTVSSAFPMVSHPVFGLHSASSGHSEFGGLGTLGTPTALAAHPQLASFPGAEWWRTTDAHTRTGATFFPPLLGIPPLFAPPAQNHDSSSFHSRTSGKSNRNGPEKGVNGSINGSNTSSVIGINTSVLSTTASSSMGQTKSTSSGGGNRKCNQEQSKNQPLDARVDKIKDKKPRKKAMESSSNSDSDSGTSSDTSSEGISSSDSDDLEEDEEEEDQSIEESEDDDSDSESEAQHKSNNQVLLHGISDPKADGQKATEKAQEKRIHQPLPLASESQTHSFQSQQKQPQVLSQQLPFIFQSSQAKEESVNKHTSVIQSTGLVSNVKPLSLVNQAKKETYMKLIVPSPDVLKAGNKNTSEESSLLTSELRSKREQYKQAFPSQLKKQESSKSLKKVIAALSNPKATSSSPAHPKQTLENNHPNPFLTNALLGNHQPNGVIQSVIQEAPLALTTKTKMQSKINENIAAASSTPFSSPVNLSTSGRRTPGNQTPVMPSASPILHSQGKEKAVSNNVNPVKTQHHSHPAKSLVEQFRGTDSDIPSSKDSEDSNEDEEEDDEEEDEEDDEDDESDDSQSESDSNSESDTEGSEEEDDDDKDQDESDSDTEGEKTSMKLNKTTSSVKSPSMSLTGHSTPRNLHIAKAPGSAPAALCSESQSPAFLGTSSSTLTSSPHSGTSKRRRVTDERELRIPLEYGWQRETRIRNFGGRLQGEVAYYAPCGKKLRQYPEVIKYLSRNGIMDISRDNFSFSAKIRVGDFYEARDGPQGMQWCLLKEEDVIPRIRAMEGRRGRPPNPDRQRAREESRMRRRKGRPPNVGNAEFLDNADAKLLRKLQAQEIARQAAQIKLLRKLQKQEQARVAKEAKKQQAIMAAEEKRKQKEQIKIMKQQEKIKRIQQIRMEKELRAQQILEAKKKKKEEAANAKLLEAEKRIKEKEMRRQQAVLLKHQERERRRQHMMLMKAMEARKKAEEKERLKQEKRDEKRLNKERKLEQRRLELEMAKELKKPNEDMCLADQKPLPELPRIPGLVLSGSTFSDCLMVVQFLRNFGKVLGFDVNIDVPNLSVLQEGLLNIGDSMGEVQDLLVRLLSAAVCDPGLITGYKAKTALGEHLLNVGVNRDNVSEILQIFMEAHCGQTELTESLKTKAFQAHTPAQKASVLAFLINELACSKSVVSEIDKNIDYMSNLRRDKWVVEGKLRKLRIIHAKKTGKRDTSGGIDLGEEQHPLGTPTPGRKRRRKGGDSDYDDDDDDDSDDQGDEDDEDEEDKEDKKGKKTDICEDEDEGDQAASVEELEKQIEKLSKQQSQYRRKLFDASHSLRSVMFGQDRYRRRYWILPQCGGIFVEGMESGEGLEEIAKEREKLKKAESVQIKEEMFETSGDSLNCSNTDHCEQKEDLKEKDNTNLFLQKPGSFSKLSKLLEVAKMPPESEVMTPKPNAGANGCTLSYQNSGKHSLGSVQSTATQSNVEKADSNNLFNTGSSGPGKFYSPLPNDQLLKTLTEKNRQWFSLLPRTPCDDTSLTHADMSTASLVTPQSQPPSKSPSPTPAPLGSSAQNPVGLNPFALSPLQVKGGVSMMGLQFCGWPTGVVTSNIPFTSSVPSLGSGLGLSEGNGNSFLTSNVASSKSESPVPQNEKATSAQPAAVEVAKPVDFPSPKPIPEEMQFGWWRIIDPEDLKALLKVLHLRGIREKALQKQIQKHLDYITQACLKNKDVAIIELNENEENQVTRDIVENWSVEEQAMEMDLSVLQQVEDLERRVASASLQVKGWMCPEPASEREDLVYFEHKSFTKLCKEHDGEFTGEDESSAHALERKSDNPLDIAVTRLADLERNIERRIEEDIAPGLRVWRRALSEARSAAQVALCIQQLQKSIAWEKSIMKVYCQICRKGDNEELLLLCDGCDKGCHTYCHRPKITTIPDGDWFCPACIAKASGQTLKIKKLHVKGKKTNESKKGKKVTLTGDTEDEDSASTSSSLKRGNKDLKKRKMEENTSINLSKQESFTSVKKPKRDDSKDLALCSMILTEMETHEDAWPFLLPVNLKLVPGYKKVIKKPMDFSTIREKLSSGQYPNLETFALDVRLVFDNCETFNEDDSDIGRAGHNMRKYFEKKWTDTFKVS

| SMILES | Potency | activity change, negative = inhibition |
| --- | --- | --- |
| Cc1ccc(Cl)cc1NC(=O)c1cnn2c1NC(c1ccco1)CC2C(F)(F)F (centres undefined) | inconclusive: 39.8 µM [inhibitor, partial curve] |  |
| O=C(COc1ccc(C2SCCS2)cc1)NNC(=O)C(Cl)Cl | inconclusive: 79.4 µM [inhibitor, single point] |  |
| COC(=O)[C@H]1[C@H]2C[C@@H]3c4[nH]c5cc(OC)ccc5c4CCN3C[C@H]2C[C@@H](OC(=O)c2cc(OC)c(OC)c(OC)c2)[C@@H]1OC | active: 28.2 µM |  |
| CN(C(=O)COC(=O)CCc1c[nH]c2ccccc12)C(c1ccccc1)c1ccccc1 | inconclusive: 14.1 µM [inhibitor, full curve, poor fit] |  |
| Cc1cc(/C=N/NC(=O)C(O)(c2ccccc2)c2ccccc2)c(C)n1-c1ccc(C(=O)O)cc1 | inconclusive: 89.1 µM [inhibitor, single point] |  |
| COC(=O)C(CC(=O)c1ccc(Br)cc1)n1nc(C)cc1C (centres undefined) | inconclusive: 89.1 µM [inhibitor, single point] |  |
| O=C(CN(C1CCCCC1)C1CCCCC1)N1CCc2ccccc2C1 | active: 44.7 µM |  |
| COC(=O)Cc1c[nH]c2cccc(OCC(O)CN(Cc3ccc([N+](=O)[O-])cc3)C(C)(C)C)c12 (centres undefined) | active: 70.8 µM |  |
| COc1ccc(S(=O)(=O)Nc2nc(C(F)(F)F)cs2)cc1 | inconclusive: 89.1 µM [inhibitor, single point] |  |
| Cc1ccc(S(=O)(=O)Nc2cc(=O)[nH]c(SCC(=O)Nc3cccc(C)c3)n2)cc1 | inconclusive: 70.8 µM [inhibitor, single point] |  |
| CNc1nc(CC(C)=O)ns1 |  | inactive: -19.9% |
| N#C/C(=C(/O)c1ccc(-c2cccc([N+](=O)[O-])c2)o1)c1nc2ccccc2s1 | active: 44.7 µM |  |
| COc1cccc(C(=O)Nc2ccc3nc4n(c(=O)c3c2)CCCC4)c1 |  | inactive: 2.73% |
| Cc1ccc2cccc(SCC(=O)N3CCOCC3)c2n1 |  | inactive: -1.69% |
| CC(Sc1ccc(S(=O)(=O)N(C)C)cn1)C(=O)NC1CCCC1 (centres undefined) |  | inactive: -1.53% |
| Cc1c[n+](CC(=O)c2ccccc2)c(C)cn1 |  | inactive: -7.6% |
| CCOc1cccc(/C(O)=C2/C(=O)C(=O)N(CCN3CCOCC3)C2c2ccncc2)c1 (centres undefined) | inconclusive: 89.1 µM [inhibitor, single point] |  |
| O=C(COC(=O)/C=C/c1ccccc1F)Nc1nnc(-c2ccccc2)o1 | inconclusive: 89.1 µM [inhibitor, single point] |  |
| CC(C)C(=O)Nc1ccc(N2CCCC2)c(Cl)c1 | inconclusive: 70.8 µM [inhibitor, single point] |  |
| CCC1Sc2ccccc2N(CC(=O)NC2CCCC2)C1=O (centres undefined) |  | inactive: 2.73% |
| Cc1ccnc(NS(=O)(=O)c2ccc(NC(=O)/C=C/c3cccs3)cc2)n1 |  | inactive: -17.8% |
| O=C(COC(=O)C(c1ccccc1)c1ccccc1)NCc1ccco1 | inconclusive: 70.8 µM [inhibitor, partial curve] |  |
| O=C(Nc1ccc2c(c1)OCO2)C1CC(c2ccccc2Cl)=NO1 (centres undefined) |  | inactive: -32.8% |

| SMILES | Potency | activity change, negative = inhibition |
| --- | --- | --- |
| Cc1c(Cl)cnc(NC(=O)COC(=O)[C@H](C)NC(=O)c2ccccc2)c1Cl | inconclusive: 79.4 µM [inhibitor, single point] |  |
| O=C(CCCCCn1c(=S)[nH]c2cc3c(cc2c1=O)OCO3)N1CCN(C(=O)c2ccco2)CC1 | inconclusive: 89.1 µM [inhibitor, single point] |  |
| CN(C)c1cc(-c2ccc(Br)cc2)oc(=O)c1Cl | inconclusive: 89.1 µM [inhibitor, single point] |  |
| Cc1c(C)n(CCC#N)c2ccc(Cl)cc12 | inconclusive: 50.1 µM [inhibitor, partial curve] |  |
| COc1ccccc1/C=C/C(=O)NNC(=O)c1cccs1 | inconclusive: 89.1 µM [inhibitor, single point] |  |
| Cc1ccc2c(Sc3ccc(Cl)cc3)c(C(=O)N3CCCCC3)[nH]c2c1 |  | inactive: 4.91% |
| O=C(NCc1ccccc1)c1onc(CSc2nc3ccccc3[nH]2)c1C(=O)NCc1ccccc1 | inconclusive: 89.1 µM [inhibitor, single point] |  |
| O=C(NC(=S)Nc1ccc2cn[nH]c2c1)c1ccccc1 |  | inactive: -1.67% |
| CN(C)S(=O)(=O)c1cccc(COC(=O)c2cccnc2Cl)c1 |  | inactive: 8.86% |
| Cc1ccc(SC(CC(=O)c2ccc(C(C)(C)C)cc2)C(=O)O)cc1 (centres undefined) | inconclusive: 89.1 µM [inhibitor, single point] |  |
| CC(=O)C1=C(O)C(=O)N(Cc2ccccc2)C1c1ccco1 (centres undefined) | inconclusive: 79.4 µM [inhibitor, single point] |  |
| Cc1cc(C)cc(N(CC(=O)Nc2ccc(Br)cc2)S(=O)(=O)c2c(C)[nH]c(=O)[nH]c2=O)c1 | inconclusive: 79.4 µM [inhibitor, single point] |  |
| O=C(Nc1nc(-c2ccco2)cs1)c1ccccc1 | active: 56.2 µM |  |
| CCCCN(CC)CCNC(=O)CN(C)S(=O)(=O)c1ccc2c(c1)c(=O)n(C)c(=O)n2C | inconclusive: 89.1 µM [inhibitor, single point] |  |
| O=C(O)CC(c1cccc(Cl)c1)n1cccc1 (centres undefined) |  | inactive: -4.67% |
| C=CCn1c(=O)c2c(nc3n2CC(C)CN3CCc2ccccc2)n(C)c1=O (centres undefined) | inconclusive: 50.1 µM [inhibitor, partial curve] |  |
| O=C(c1ccc(NS(=O)(=O)c2ccc(Cl)c(Cl)c2)cc1)N1CCOCC1 |  | inactive: 9.27% |
| CC1CCN(C(C(=O)NC2CCCCC2)c2cc3c(cc2[N+](=O)[O-])OCO3)CC1 (centres undefined) | inconclusive: 39.8 µM [inhibitor, partial curve] |  |
| COc1ccc(N2CCN(C(=O)CCNS(=O)(=O)c3ccc(Br)s3)CC2)cc1 | inconclusive: 44.7 µM [inhibitor, partial curve] |  |
| COCCn1c(C)cc(O)c(C(c2ccccc2)N2CCN(c3ccccc3F)CC2)c1=O (centres undefined) | inconclusive: 89.1 µM [inhibitor, single point] |  |
| COC(=O)C1=C(C(=O)OC)SC(=C2C(=S)C(C)(C)N(C(=O)C(C)C)c3ccccc32)S1 | active: 8.91 µM |  |
| CC(=O)c1ccc(NC(=O)CSc2ccsc2[N+](=O)[O-])cc1 | active: 35.5 µM |  |
| Nc1nn(S(=O)(=O)c2cccc3nsnc23)cc1-c1ccc(Br)cc1 | inconclusive: 17.8 µM [inhibitor, full curve] |  |

| SMILES | Potency | activity change, negative = inhibition |
| --- | --- | --- |
| COc1ccc(NC(=O)C(C)N2C(=O)C3CC=C(Cl)CC3C2=O)cc1 (centres undefined) |  | inactive: -2.6% |
| CCOC(=O)c1c(C)n(C)c2cc([N+](=O)[O-])c(O)c([N+](=O)[O-])c12 | inconclusive: 50.1 µM [inhibitor, partial curve] |  |
| C[C@H](NC(=O)OC(C)(C)C)C(=O)N/N=C/c1cccc2nccnc12 | inconclusive: 89.1 µM [inhibitor, single point] |  |
| Oc1c(Br)cc(Br)cc1/C=N/n1c(-c2ccccc2)n[nH]c1=S | inconclusive: 44.7 µM [inhibitor, partial curve] |  |
| O=[N+]([O-])c1cccc(Nc2nc(Cl)nc(Cl)n2)c1 | active: 89.1 µM |  |
| CC1=NN(C(=O)c2ccccc2)C(O)(c2ccc(Br)cc2)C1 (centres undefined) | inconclusive: 39.8 µM [inhibitor, partial curve] |  |
| C=Cc1ccc(C(=O)NC2CCCN(Cc3ccccc3F)C2)cc1 (centres undefined) |  | inactive: 2.73% |
| COc1ccccc1OCC(=O)Nc1ccc(S(=O)(=O)Nc2cc(C)on2)cc1 | inconclusive: 3.55 µM [inhibitor, single point] |  |
| CC(C)[C@@H]1NC(=O)c2cc([N+](=O)[O-])cc(I)c2OCC[C@@H](C(N)=O)NC(=O)[C@H](CCC(=O)O)NC1=O | inconclusive: 89.1 µM [inhibitor, single point] |  |
| O=C(C1=C[C@H](C2CCCCC2)C[C@H](OCCCCO)O1)N1CCN(Cc2ccc3c(c2)OCO3)CC1 | inconclusive: 79.4 µM [inhibitor, single point] |  |
| COc1ccc(OC)c(CCNC(=O)Cn2nc(C)c3c(C)n(-c4ccccc4)nc3c2=O)c1 |  | inactive: -8.31% [at 57.1 µM] |
| CCOC(=O)c1c(CSc2ccc(C)cc2)n(C)c2cc(Br)c(O)c(CN(C)C)c12 | active: 44.7 µM |  |
| COc1ccccc1OCCC(=O)OCC(=O)c1c(N)n(C)c(=O)n(C)c1=O | inconclusive: 100 µM [inhibitor, single point] |  |
| COc1cc(NC(=O)c2ccc(C)cc2)c(OC)cc1NC(=O)CN1CCCCC1 | inconclusive: 79.4 µM [inhibitor, single point] |  |
| O=C(/C(C=Nc1cc2c(oc1=O)CCCC2=O)=C(\O)c1ccccc1)c1ccccc1 | inconclusive: 70.8 µM [inhibitor, single point] |  |
| CCCCC(=O)NC(c1ccc([N+](=O)[O-])cc1)c1c(O)ccc2ccccc12 (centres undefined) | inconclusive: 44.7 µM [inhibitor, partial curve] |  |
| COC(=O)c1cc(Br)c(=O)n(CCc2ccccc2)c1 |  | inactive: 1.41% |
| Cc1cc[n+](-c2nc([O-])sc2/C=N/Nc2ccc([N+](=O)[O-])cc2)cc1 | inconclusive: 79.4 µM [inhibitor, partial curve] |  |
| CCOc1cc(CNCc2ccccn2)ccc1OCC(=O)NC1CCCCC1 | active: 79.4 µM |  |
| CCN1CCN(c2ccc(N=Cc3ccc(O)cc3O)cc2)CC1 | active: 31.6 µM |  |
| COc1ccc(Cl)cc1CN1CCN(c2nc(C)cc(C)c2C#N)CC1 |  | inactive: 1.71% |
| CC(=O)c1cc(C#N)c(N2CCCC2)nc1C | inconclusive: 79.4 µM [inhibitor, single point] |  |
| O=C(CCCN1C(=O)/C(=C/c2ccccc2)SC1=S)Nc1ccc(O)cc1 | inconclusive: 20 µM [inhibitor, full curve, poor fit] |  |

— PubChem BioAssay AID504333 (National Center for Advancing Translational Sciences (NCATS), 2011)
